The supplement of paper PMC7125110
± gives the standard error. This sample is rich in variants without activity.

B1: glmS ribozyme (parent)
chain: AUAAAAGCGCCAGAACUACAGAAAUGUAGUUGACGAGGAGGAGGUUUAUCGAAUUUUCGGCGGAUGCCUCCAAA

Variants of: B1
Assay: self-cleavage kobs at 160 uM GlcN6P; higher = faster cleavage; RNA array
Settings: with glucosamine-6-phosphate
Procedure, shortened: (§1)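 On sequenced MiSeq chips, barcoded ribozyme variants were made in situ by E. coli RNA polymerase and followed at 37 °C through a hybridised Cy3 probe. Glucosamine-6-phosphate was flowed in at 40 μM to 10 mM in HEPES/KCl/Mg(OAc)2 buffer. Exponential fits to normalised per-tile medians gave kobs, and weighted Michaelis–Menten fits gave kcat and KM.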

Variant | self-cleavage kobs at 160 uM GlcN6P [s⁻¹]
C16U G32A C34A G41A A42U U49C G60A C68U U69G | < 1e-05
G26U G29A U54A C70U C71U | 0.000121 ± 3.5e-05
G29A G32A G62U | < 1e-05
G29A G35C A52U U54A | < 1e-05
G29C G37U | < 1e-05
G29C G41C G62A | < 1e-05
G29U C50U | < 1e-05
G29U C61A C71U | < 1e-05
G29U G35U G62U | < 1e-05
U30A A48C | < 1e-05
U30G G41C G60A | < 1e-05
U31C G43U U49C C67U | < 1e-05
U31C U55A G59C | < 1e-05
U31G G35U G43U | < 1e-05
G32A A33U | < 1e-05
G32A A42G U56A C70A | < 1e-05
G32A C34U G44A | < 1e-05
G32U G41U U57C | < 1e-05
G32U G43U C61A | < 1e-05
G32U U46C | < 1e-05
A33C C58G | < 1e-05
A33C G60A | < 1e-05
A33C U47A G59U U65G | < 1e-05
A33C U47C G59C G66A | < 1e-05

Variant | self-cleavage kobs at 160 uM GlcN6P [s⁻¹]
A33U G40C | < 1e-05
A33U G51A U55A | < 1e-05
A33U U45A A52U G59U C61U | < 1e-05
C34A A39C U49A U55C | < 1e-05
C34A G37U A48G | < 1e-05
C34G A39U G59U | < 1e-05
C34G U56A | < 1e-05
G35A A48G G51C A64C | < 1e-05
G35A C70A | < 1e-05
G35A G37A | < 1e-05
G35A G38A A39G G63C C67U | < 1e-05
G35C G51C | < 1e-05
G35U C67A C68G C70G | < 1e-05
G35U U45A | < 1e-05
A36C A39U | < 1e-05
A36C G38C U56C | < 1e-05
A36C U54A | < 1e-05
A36U G41A C50A | < 1e-05
A36U G60A | < 1e-05
A36U U49G A52C | < 1e-05
A36U U57G | < 1e-05
G37C C58G | < 1e-05
G37C U47C A52U | < 1e-05
G37U G44A G66U | < 1e-05

Variant | self-cleavage kobs at 160 uM GlcN6P [s⁻¹]
G37U U46G U56G | < 1e-05
G38A G43C G44U U56C | < 1e-05
G38U G43A C58G U65C | < 1e-05
G38U G43C | < 1e-05
G38U G43U U65C | < 1e-05
A39C A42C U46C | < 1e-05
A39C G44U | < 1e-05
A39C G51U | < 1e-05
G40A C58A | < 1e-05
G40C U69A | < 1e-05
G40U G41C U57C C58G | < 1e-05
G40U U47A G59U C71G | < 1e-05
G41U G59U C71U | < 1e-05
A42C C67G C71U | < 1e-05
A42G G51A C61G | < 1e-05
G44C A64U | < 1e-05
G44U U46C | < 1e-05
G44U U65G | < 1e-05
U45A U49A C61U C67A | < 1e-05
U45G A48G G59U | < 1e-05
U45G U47C C61U | < 1e-05
U45G U49G C70A C71G | < 1e-05
U45G U65C | < 1e-05
U46G U55G G60C | < 1e-05

Variant | self-cleavage kobs at 160 uM GlcN6P [s⁻¹]
U47A G62C | < 1e-05
U47C C58U | < 1e-05
U47C G59A | < 1e-05
A48C C50A A52G | < 1e-05
U49C U57A C70G | < 1e-05
C50A U54G | < 1e-05
C50A U55C A64G | < 1e-05
C50G G59C | 6.56e-05 ± 3.2e-05
C50G U65G | 4.97e-05 ± 1.7e-05
G51U G62U A64C | < 1e-05
A52C C61A | < 1e-05
A52C U54C | < 1e-05
U54A C58A G60C | < 1e-05
U54A C61G | < 1e-05
U54A G60U | < 1e-05
U54C U56A G59C U65A | < 1e-05
U55A G60A | < 1e-05
U55C C58U | < 1e-05
G59A G63A | < 1e-05
G59U C67U C68U U69C | 4.87e-05 ± 2.4e-05
G62U A64C | < 1e-05

Variants of: B1
Assay: self-cleavage kobs at 2500 uM GlcN6P; higher = faster cleavage; RNA array
Settings: with glucosamine-6-phosphate
Procedure, shortened: as §1

Variant | self-cleavage kobs at 2500 uM GlcN6P [s⁻¹]
G26U G29A U54A C70U C71U | 5.37e-05 ± 2.3e-05
G29C G41C G62A | < 1e-05
G29U G35U G62U | < 1e-05
U30G G41C G60A | < 1e-05
G32A C34U G44A | < 1e-05
A33C G60A | < 1e-05
A33C U47C G59C G66A | < 1e-05
A33U U45A A52U G59U C61U | < 1e-05
C34G A39U G59U | < 1e-05
C34G U56A | < 1e-05
G35U U45A | < 1e-05
A36C A39U | < 1e-05
A36C G38C U56C | < 1e-05
A36U G41A C50A | < 1e-05
A36U U57G | < 1e-05
G37C C58G | < 1e-05
A39C G51U | < 1e-05
G40C U69A | < 1e-05
G41U G59U C71U | < 1e-05
A42C C67G C71U | < 1e-05
A42G G51A C61G | < 1e-05
G44C A64U | < 1e-05
G44U U65G | 5.71e-05 ± 1.8e-05
U45A U49A C61U C67A | < 1e-05
U45G U47C C61U | < 1e-05
U46G U55G G60C | < 1e-05

Variant | self-cleavage kobs at 2500 uM GlcN6P [s⁻¹]
A48C C50A A52G | < 1e-05
C50G U65G | 7.28e-05 ± 2.4e-05
U54C U56A G59C U65A | < 1e-05
G62U A64C | < 1e-05
A4U A33U C68G | < 1e-05
A6C A12U G60A | < 1e-05
A6C A14G G35A U57A G66C C68U | < 1e-05
A6C A42G U65C | < 1e-05
A6C A48C G51U | < 1e-05
A6C C8G A14C A48C | < 1e-05
A6C C16U G32U G51A | < 1e-05
A6C G7C C10U G29C C58G | < 1e-05
A6C G7U A39U A52G U56G | < 1e-05
A6C G9A C67U | < 1e-05
A6C G9A G29A U31A U49A C50A | < 1e-05
A6C G9U U55G C58A G60U | < 1e-05
A6C G13C A39U | < 1e-05
A6C G32U C58U | < 1e-05
A6C G35U A36G A52C U54A | < 1e-05
A6C G41U C50G A53U U55C | < 1e-05
A6C G63U A64G | < 1e-05
A6C U30G U49G U65G | < 1e-05
A6C U31A U57G C67A | < 1e-05
A6G A12U C67U | 0.000919 ± 0.00023
A6G A14G G40A | 3.86e-05 ± 1.1e-05
A6G A14U A48C | < 1e-05

Variant | self-cleavage kobs at 2500 uM GlcN6P [s⁻¹]
A6G A15U U57G | < 1e-05
A6G A33G G35U G38C G62C C67A | < 1e-05
A6G A36C G62U | < 1e-05
A6G A36G A39C G59A C61U | < 1e-05
A6G A39U U49C | < 1e-05
A6G A42G U46A U56A | < 1e-05
A6G C8G A15C U31G | < 1e-05
A6G C58G G59C C68U | < 1e-05
A6G G13A G29U C70G | < 1e-05
A6G G13C U55C A64U | < 1e-05
A6G G13U G40A C71U | < 1e-05
A6G G13U G62U C68U | < 1e-05
A6G G32C U49C A53G G62U A64U | < 1e-05
A6G G43C C71G | < 1e-05
A6G U46A U69C | < 1e-05
A6G U65A C70G | < 1e-05
A6U A12U U55A | 0.000377 ± 9.2e-05
A6U A15C G41C | < 1e-05
A6U A33U G38A C70A | < 1e-05
A6U A36U G44U | < 1e-05
A6U A36U G60A C70U | < 1e-05
A6U C8A U56A | < 1e-05
A6U C11G A52C | < 1e-05
A6U C16G A36U G41U G43C | < 1e-05

Variants of: B1
Assay: self-cleavage kobs at 10000 uM GlcN6P; higher = faster cleavage; RNA array
Settings: with glucosamine-6-phosphate
Procedure, shortened: as §1

Variant | self-cleavage kobs at 10000 uM GlcN6P [s⁻¹]
A33C G60A | < 1e-05
C34G A39U G59U | < 1e-05
A36C A39U | < 1e-05
A36U U57G | < 1e-05
G37C C58G | < 1e-05
G38U G43C | < 1e-05
A39C G51U | < 1e-05
G44U U65G | 0.000152 ± 2.6e-05
U47C C58U | 4.92e-05 ± 8.1e-06
A52C C61A | < 1e-05
U54A C61G | < 1e-05
U55C C58U | 6.55e-05 ± 8.7e-06
A6C G9A C67U | < 1e-05
A6C G41U C50G A53U U55C | < 1e-05
